Cytotoxicity call and growth inhibition call data for 28 molecules are collected here from the antibiotic and cytotoxicity screens of Wong et al. (2023).

Some of the results follow.

In one assay the test system is HSkMC. The assay is described as follows: cytotoxicity call (relative viability < 0.9). To be noted: 10 µM.
For the next assay, the system named is S. aureus RN4220. The assay is described as follows: growth inhibition call (relative growth <= 0.2). Particulars: 50 µM.

As for `NC(=O)NS(=O)(=O)c1ccc(N)cc1`, in the assay with HSkMC, the cytotoxicity call was “inactive”. Also, in the assay with S. aureus RN4220, the growth inhibition call was “inactive”.

Take `COc1ccc(S(=O)(=O)Nc2cccc3c2O[C@H](CN(C)Cc2ccc(Oc4ccccc4)cc2)[C@@H](C)CN([C@@H](C)CO)C3=O)cc1`: the cytotoxicity call in the assay on HSkMC was “inactive”. In the assay on S. aureus RN4220, the growth inhibition call was “inactive”.

On to `C[C@H]1CN([C@@H](C)CO)C(=O)Cc2cc(NC(=O)CCN3CCOCC3)ccc2O[C@H]1CN(C)Cc1ccc(C(=O)Nc2ccccc2N)cc1`, for which, in the assay with HSkMC, the cytotoxicity call is “inactive”. The growth inhibition call in the assay on S. aureus RN4220 was “inactive”.

In the case of `C[C@H]1CN([C@@H](C)CO)S(=O)(=O)c2ccc(-c3cncnc3)cc2O[C@H]1CN(C)C(=O)Cc1ccccc1`, in the assay on HSkMC, the cytotoxicity call is “inactive”. For the same molecule, the growth inhibition call with S. aureus RN4220 is “inactive”.

As to `CC(N)(Cc1cccc(O)c1)C(=O)O` (stereo unspecified), the cytotoxicity call in the assay with HSkMC is “inactive”. For the same molecule, the growth inhibition call in the assay with S. aureus RN4220 is “inactive”.

Take `C[C@@H]1CN([C@@H](C)CO)C(=O)c2cc(NS(=O)(=O)c3cn(C)cn3)ccc2O[C@@H](C)CCCCO[C@H]1CN(C)C(=O)Nc1cccc2ccccc12`: in the assay with HSkMC, the cytotoxicity call is “active”. For the same molecule, the growth inhibition call with S. aureus RN4220 is “inactive”.

With `Cc1cc(O)cc(C)c1Cl`, the cytotoxicity call with HSkMC is “inactive”. In addition, in the assay with S. aureus RN4220, the growth inhibition call is “inactive”.

`COCC(=O)N(C)C[C@H]1Oc2cc(C#C[C@@H](C)O)ccc2S(=O)(=O)N([C@@H](C)CO)C[C@H]1C`: the cytotoxicity call in the assay on HSkMC was “inactive”. Further, in the assay with S. aureus RN4220, the growth inhibition call is “inactive”.

With `COc1ccc(S(=O)(=O)N(C)C[C@H]2Oc3ccc(NC(=O)Cn4cnnn4)cc3C(=O)N([C@@H](C)CO)C[C@H]2C)cc1`, in the assay with HSkMC, the cytotoxicity call is “inactive”. Moreover, in the assay on S. aureus RN4220, the growth inhibition call is “inactive”.

Turning to `CN(C)CCCC[C@@H]1NC(=O)[C@H]2C[C@@H](C(=O)NCCCCCNC(=O)CS)[C@@H](c3ccc(O)cc3)N2C1=O`, the cytotoxicity call in the assay on HSkMC is “inactive”. Also, the growth inhibition call in the assay on S. aureus RN4220 is “inactive”.

Regarding `C[C@H](CO)N1C[C@H](C)[C@H](CN(C)Cc2ccc(Cl)c(Cl)c2)Oc2ccc(NS(=O)(=O)c3ccccc3)cc2CC1=O`, in the assay on HSkMC, the cytotoxicity call is “inactive”. Moreover, the growth inhibition call in the assay on S. aureus RN4220 was “inactive”.

As for `C[C@H]1CN([C@@H](C)CO)C(=O)c2c(c3ccccc3n2C)-c2ccccc2CO[C@H]1CN(C)S(=O)(=O)c1ccc(C(F)(F)F)cc1`, the cytotoxicity call in the assay on HSkMC was “inactive”. Further, the growth inhibition call in the assay with S. aureus RN4220 was “inactive”.

With `C[C@@H]1CN([C@H](C)CO)C(=O)c2cc(NC(=O)NC3CCCCC3)ccc2O[C@@H]1CN(C)S(C)(=O)=O`, the cytotoxicity call in the assay with HSkMC was “inactive”. The growth inhibition call with S. aureus RN4220 was “inactive”.

As for `C[C@@H]1CCCCO[C@H](CN(C)C(=O)Nc2ccc(F)cc2)[C@@H](C)CN([C@H](C)CO)C(=O)c2cc(NC(=O)c3ccncc3)ccc2O1`, the cytotoxicity call with HSkMC is “inactive”. Moreover, in the assay on S. aureus RN4220, the growth inhibition call is “inactive”.

As to `COc1ccc(NC(=O)Nc2ccc3c(c2)C(=O)N([C@@H](C)CO)C[C@H](C)[C@H](CN(C)Cc2ccc4c(c2)OCO4)OCCCC[C@@H](C)O3)cc1`, in the assay with HSkMC, the cytotoxicity call is “inactive”. Besides, in the assay with S. aureus RN4220, the growth inhibition call was “inactive”.

With `C[C@@H]1CCCCO[C@@H](CN(C)Cc2ccncc2)[C@@H](C)CN([C@@H](C)CO)C(=O)c2cc(NC(=O)Nc3ccc(F)cc3)ccc2O1`, the cytotoxicity call in the assay on HSkMC was “inactive”. For the same molecule, the growth inhibition call in the assay with S. aureus RN4220 was “inactive”.

`C=C(C)C1=NC(C)(C)C[C@H](C)O1`: the cytotoxicity call with HSkMC was “inactive”. Further, in the assay with S. aureus RN4220, the growth inhibition call was “inactive”.

In the case of `COc1ccc(S(=O)(=O)N(C)C[C@H]2OCCCC[C@H](C)Oc3ccc(NC(=O)NC4CCCCC4)cc3C(=O)N([C@H](C)CO)C[C@@H]2C)cc1`, the cytotoxicity call with HSkMC is “inactive”. The growth inhibition call with S. aureus RN4220 is “inactive”.

For the molecule `C[C@@H]1CN([C@@H](C)CO)C(=O)c2cc(NS(=O)(=O)c3cn(C)cn3)ccc2O[C@@H]1CN(C)C(=O)Nc1ccccc1`, the cytotoxicity call in the assay with HSkMC is “inactive”. Further, in the assay on S. aureus RN4220, the growth inhibition call is “inactive”.

With `COc1ccc(S(=O)(=O)N(C)C[C@H]2Oc3ccc(NS(=O)(=O)c4c(C)noc4C)cc3C(=O)N([C@H](C)CO)C[C@@H]2C)cc1`, the cytotoxicity call in the assay on HSkMC was “inactive”. Further, in the assay on S. aureus RN4220, the growth inhibition call is “inactive”.

Take `O=C(C[C@@H]1C[C@H]2c3cc(NC(=O)Nc4ccccc4F)ccc3O[C@H]2[C@H](CO)O1)NCc1ccc(Oc2ccccc2)cc1`: in the assay on HSkMC, the cytotoxicity call is “inactive”. Also, the growth inhibition call in the assay on S. aureus RN4220 was “inactive”.

In the case of `CC[C@H](C(=O)N1CCCC[C@H]1C(=O)O[C@H](CCc1ccc(OC)c(OC)c1)c1cccc(OCC(=O)NCCNC(=O)COc2cccc([C@@H](CCc3ccc(OC)c(OC)c3)OC(=O)[C@@H]3CCCCN3C(=O)[C@@H](CC)c3cc(OC)c(OC)c(OC)c3)c2)c1)c1cc(OC)c(OC)c(OC)c1`, the cytotoxicity call with HSkMC is “inactive”. Moreover, the growth inhibition call in the assay with S. aureus RN4220 was “inactive”.

As for `COc1ccc(CN(C)C[C@@H]2OCCCC[C@@H](C)Oc3ccc(NS(=O)(=O)c4ccc(OC)cc4)cc3C(=O)N([C@H](C)CO)C[C@H]2C)cc1`, the cytotoxicity call in the assay with HSkMC is “inactive”. Moreover, the growth inhibition call in the assay on S. aureus RN4220 was “inactive”.

As for `O=C1c2ccccc2C(=O)c2c1ccc(O)c2O`, in the assay on HSkMC, the cytotoxicity call was “inactive”. For the same molecule, in the assay with S. aureus RN4220, the growth inhibition call was “inactive”.

In the case of `C[C@H](CO)N1C[C@H](C)[C@H](CN(C)Cc2ccc(Oc3ccccc3)cc2)Oc2ncc(-c3cccnc3)cc2C1=O`, the cytotoxicity call in the assay on HSkMC (human skeletal muscle cells) is “inactive”. Also, the growth inhibition call in the assay on S. aureus RN4220 is “inactive”.

As for `O=S1(=O)CC[C@H](N[C@H]2CCS(=O)(=O)C2)C1`, in the assay with HSkMC, the cytotoxicity call is “inactive”. For the same molecule, the growth inhibition call with S. aureus RN4220 was “inactive”.

As to `C[C@@H]1CCCCO[C@@H](CN(C)CC2CC2)[C@@H](C)CN([C@H](C)CO)C(=O)c2cc(NC(=O)Nc3cccc4ccccc34)ccc2O1`, the cytotoxicity call with HSkMC is “inactive”. In the assay on S. aureus RN4220, the growth inhibition call is “inactive”.

Turning to `C[C@@H]1CN([C@@H](C)CO)C(=O)c2cc(NC(=O)CCCN(C)C)ccc2O[C@@H]1CN(C)Cc1ccc(C(=O)O)cc1`, in the assay with HSkMC, the cytotoxicity call is “inactive”. For the same molecule, in the assay on S. aureus RN4220, the growth inhibition call was “inactive”.
